Results are given in words; binding and its absence hold for the method and conditions named. In cells and extracts the contact can be indirect. Some entries that bind do so weakly or less than the wild type. For some assays here: Tags and fused reporters may be left off the sequences shown.

Drawing on paper PMC11708023, this text covers binding for 2 molecules.

Assay [1] has as its target B2-GFP (FHV B2 with GFP fused to its C-terminus) (Flock House virus) (UniProt P68831). The experiment in a line: co-IP; S2 cells co-transfected with pMT-V5-CDK12 and B2-GFP, GFP or GFP-tagged B2 mutants; RIPA buffer (50 mM Tris-HCl pH 7.4, 150 mM NaCl, 5 mM MgCl2, 1 mM EDTA, 10% glycerol, 1% NP-40); anti-V5 or anti-GFP on protein A agarose, 4°C overnight; western blot.
In assay [2] the target is V5-tagged B2 of Flock House virus (FHV) (Flock House virus) (UniProt P68831). The experiment in a line: co-IP; S2 cells transfected with pMT-B2-V5 for 48 h and infected with FHVΔB2; co-IP with anti-V5; western blot with anti-CDK12.

B1: V5-CDK12 (Drosophila cyclin-dependent kinase 12 with N-terminal V5 tag) (enzyme, UniProt Q9VP22 1-1157)
chain: MHASSAAATALVEYSDVSSEDFSDQEAGDLDADAGKGAGNIKKPKPAPDNQFSKGRLDAKPDKEGYDNYRSRRAEDSSDPVAAGSRQTSSSEATNPREEPSQASNTSKDELWGREIYMSSDSIDTDELEAEMKRQKRKKQKKEKHKHKSKKKSKKRKKKRAKSYSSIDSMSDNDINALLDRRYTPPTAPSKSNERTVSAAPSSFTPHNLKESSSPATPPPVRRPNTNSNYYGESSLETANSALGSNLQVTVTNKQSISNRLRSPPPSSRSSGNGPRFGNSPRTPPPSHYSSSGGGGVGSGSVVRDSRSSRYVNSPHKEDVSAHHRSSHDHGYQGRYSGAGSSSHDTRKVKRLSPELDRYNHQPSTPPHKRRKFSDGREVGLGNFEHSRHHSGKYERYSRDRYSRRSSRSPSVQHSRSRQSPSGGLSSGSNAFRHGGSHKHKYGTTVSSTPSHTTRTSKRASGTGTSGDRYSRSPRTSSRYMESSPPSPVGASGSHHYHHRRSPRMRQRTRGDSRRRSPSSASSESSASRSRSPTSRDLKHKREEYIKKISETSLFAELVKDRHKRQKALKEIIERQEENSNSNSNGALTINDNSSSVDGNTPNAADGRSAPGSGTPAAASTTSNGLQALGSKPDLDLNNIPMPNKQNDSVVSNPASNADVPDSVAQLKQPLLVPPFSASKNNIKPKSLTSLPLPPGMNVLDLAGARSPSPGQKKESDEKNVTSSGSANKSVLNLPMPPVIPGSEELSGDDDVIDSPEDFDAPAVGTVHGHGGGPGTTRQRPVILNRRDSRNNVRDWGERCVDVFEMIAQIGEGTYGQVYKARDHHTNDMVALKKVRLEHEKEGFPITAVREIKILRQLNHRNIVNLHEIVTDKQDAVEFRKDKGSFYLVFEYMDHDLMGLLESGMVDFNEENNASIMKQLLDGLNYCHKKNFLHRDIKCSNILMNNRGKVKLADFGLARLYNADDRERPYTNKVITLWYRPPELLLGEERYGPSIDVWSCGCILGELFVKRPLFQANAEMAQLETISKICGSPVPAVWPNVIKLPLFHTLKQKKTHRRRLREDFEFMPAPALDLLDKMLDLDPDKRITAEDALRSPWLRKINPDEMPTPQLPTWQDCHELWSKKRRRQMREQQESLPPTVIASTKYQQHGATMVGDA
Take B1: the binding result in assay [1] was “binds”.

B2: Endogenous CDK12 of S2 cells (enzyme, UniProt Q9VP22 1-1157)
chain: B1 chain
For B2, the binding entry in assay [2] was “binds”.
